According to publication PMC4336329 (PLoS ONE, 2015):
Out of some 310,000 compounds screened, about 2,200 (0.71%) showed an effect of 50% or more. Effects have a minus sign here. The list shows a part of the results.

Molecular target: human ether-à-go-go-related gene (hERG) potassium channel (human, UniProt Q12809)
Test: primary screen, population patch clamp on CHO cells stably expressing hERG

human ether-à-go-go-related gene (hERG) potassium channel, sequence (Q12809 whole entry, looked up): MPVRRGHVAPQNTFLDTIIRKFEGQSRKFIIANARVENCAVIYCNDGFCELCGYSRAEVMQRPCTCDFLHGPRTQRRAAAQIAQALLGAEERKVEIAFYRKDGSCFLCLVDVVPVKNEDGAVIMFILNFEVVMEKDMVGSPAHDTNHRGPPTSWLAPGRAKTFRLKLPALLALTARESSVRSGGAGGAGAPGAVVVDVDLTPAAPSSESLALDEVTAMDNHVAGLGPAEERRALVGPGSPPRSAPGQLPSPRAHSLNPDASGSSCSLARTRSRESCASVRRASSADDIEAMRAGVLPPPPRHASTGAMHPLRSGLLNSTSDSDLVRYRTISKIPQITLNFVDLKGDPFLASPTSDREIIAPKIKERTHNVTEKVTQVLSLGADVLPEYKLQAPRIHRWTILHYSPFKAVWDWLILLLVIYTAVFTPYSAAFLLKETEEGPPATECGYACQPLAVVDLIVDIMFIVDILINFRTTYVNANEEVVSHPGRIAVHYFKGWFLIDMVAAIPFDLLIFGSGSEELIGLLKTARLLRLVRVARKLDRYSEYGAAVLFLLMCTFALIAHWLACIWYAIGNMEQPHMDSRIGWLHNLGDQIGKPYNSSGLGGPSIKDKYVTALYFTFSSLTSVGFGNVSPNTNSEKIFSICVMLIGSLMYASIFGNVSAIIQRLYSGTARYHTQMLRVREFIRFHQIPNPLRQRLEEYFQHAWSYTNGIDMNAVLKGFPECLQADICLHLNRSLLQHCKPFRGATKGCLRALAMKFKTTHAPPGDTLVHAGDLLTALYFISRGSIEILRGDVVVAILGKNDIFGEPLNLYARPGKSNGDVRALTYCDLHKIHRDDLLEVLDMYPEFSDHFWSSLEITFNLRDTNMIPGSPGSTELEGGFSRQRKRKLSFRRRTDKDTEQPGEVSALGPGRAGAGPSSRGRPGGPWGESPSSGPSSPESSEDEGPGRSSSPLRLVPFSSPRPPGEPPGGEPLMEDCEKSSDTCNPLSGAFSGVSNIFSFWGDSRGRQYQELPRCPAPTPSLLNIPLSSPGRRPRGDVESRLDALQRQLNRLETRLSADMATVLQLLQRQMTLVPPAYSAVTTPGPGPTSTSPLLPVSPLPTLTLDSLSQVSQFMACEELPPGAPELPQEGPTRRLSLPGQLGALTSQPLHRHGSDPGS

Structure (SMILES)	hERG current change (%, negative = inhibition) at 1uM
COC(=O)c1ccccc1N=Nc1c(C)[nH][nH]c1=O	8.34%
O=c1cc(NCc2ccco2)[nH]c(=O)n1-c1ccc(Br)cc1	9.42%
COCc1cc(=O)n2[nH]c(SCc3ccccc3)nc2n1	-1.58%
Cc1cccc(C(=O)NCCc2nnc(SCC(=O)Nc3cccc(C(=O)O)c3)n2C)c1	8.54%
C/C(=N\NC(=S)Nc1cccc(C)c1)c1ccccc1	2.68%
Cc1ccc(C)c(NS(=O)(=O)c2cc(C(=O)NCc3ccco3)ccc2C)c1	4%
O=C(CSc1nnc(NC2CCCCC2)s1)Nc1ccc2c(c1)C(=O)c1ccccc1C2=O	7.75%
O=C(NC1CCCC1)C(c1ccccc1)N(Cc1ccco1)C(=O)Cc1cccs1 (stereo not drawn)	1.47%
Cc1ccc(Cn2c(C3CCCN3c3nc(-c4cc(Cl)c(N)c(Cl)c4)cs3)nc3cc(C(=O)NCCCO)ccc32)cc1 (stereo not drawn)	10.2%
C=C(C)C1CC=C(C)/C(=N/NC(=O)c2ccc(NC(=O)CCC)cc2)C1 (stereo not drawn)	-10.4%
O=C(CN1CCc2ccccc2C1)Nc1ccc(Br)cc1	-0.231%
Cc1ccc2c(c1)N(C(=O)NC1CCCCC1)C(C)(C)CC2C (stereo not drawn)	3.91%
CCC(C)n1c(SCc2ccccc2)nc2ccsc2c1=O (stereo not drawn)	-2.95%
C/C(Cc1ccccc1)=N\NC(=O)CNC(=O)c1ccccc1Br	12.5%
CC(C)COC(=O)c1cccc2c1-c1ccccc1/C2=N\O	13.1%
CCOc1ccc(CC(=O)Nc2c(C(N)=O)oc3ccc(Br)cc23)cc1OCC	-12.4%
Cc1ccc(S(=O)(=O)Nc2ccccc2-c2ccccc2NS(=O)(=O)c2ccc(C)cc2)cc1	12.4%
CCc1ccccc1Nc1nc2ccccc2[nH]1	8.79%
COc1ccccc1NS(=O)(=O)c1ccc(O)c(C(=O)OCC(=O)Nc2ccccc2F)c1	-0.604%
COC(=O)Cc1ccc(OC(=O)C2CCN(S(=O)(=O)c3ccc(OC)c(OC)c3)CC2)cc1	15.5%
O=C(c1ccccc1N1CCOCC1)N1CCCC(Nc2ccc(F)cc2)C1 (stereo not drawn)	13%
C=CCN1C(=O)C2(C(C#N)=C(N)Oc3n[nH]c(CCC)c32)c2ccccc21 (stereo not drawn)	12.9%
O=P(c1ccccc1)(c1ccccc1)c1nc(-c2ccc(Cl)cc2)oc1N1CCOCC1	-12.1%
Cc1ccc(-n2c3c(cc(C(=O)N4CCN(C)CC4)c2=O)C(=O)CC(C)(C)C3)cc1	1%
COCCNc1nnc(SCC(=O)c2c[nH]c3ccccc23)s1	14.3%
COc1ccc(CN(C)C(=O)c2cc(S(=O)(=O)Nc3ccccc3F)ccc2C)c(OC)c1	1.52%
S=c1[nH]nc(-c2ccco2)n1C1CCCCC1	14.6%

Structure (SMILES)	hERG current change (%, negative = inhibition) at 1uM
CCOC(=O)N1CCN(S(=O)(=O)c2ccc(C)c(C(=O)NC3CCCCC3)c2)CC1	5.65%
C=C1CC(C(=O)N/N=C/c2ccccc2)C1	18.3%
Cc1ccnc(NC(=O)c2sc3ccccc3c2Cl)c1	-13.5%
Cc1ccccc1CN1C(=O)c2ccccc2Sc2ccc(C(=O)O)cc21	6.76%
COc1ccc(CNCCNC(=O)c2ccco2)c(OC)c1OC	-0.0852%
CCc1nc(NCCc2ccccn2)c2nnn(Cc3ccccc3F)c2n1	8.2%
O=C1[C@H]2[C@@H](c3ccc(F)cc3)N3C(=O)N(c4cccc(Br)c4)C(=O)[C@@]3(Cc3ccc(Cl)cc3)[C@H]2C(=O)N1C1CCCCC1	12.8%
O=C(NCc1cccnc1)c1nn2cccnc2c1Cl	7.62%
O=C(O)CCCCOn1ccnc1	13.6%
COC(=O)c1ccccc1-n1cccc1C(=O)NP(=O)(N1CCOCC1)N1CCOCC1	13%
Cc1ccc(S(=O)(=O)/N=C2/NC(=O)/C(=C/c3cc([N+](=O)[O-])ccc3O)S2)cc1	19.5%
CNS(=O)(=O)c1cccc(C(=O)NCC(c2cccs2)N(C)C)c1 (stereo not drawn)	6.99%
Cc1ccccc1N=CC=C1OC(C)(C)C(C)(C)O1	6.67%
O=C(O)c1cccnc1SC1CC(=O)N(c2ccc(OC(F)F)cc2)C1=O (stereo not drawn)	8.32%
O=C(Cn1ccc([N+](=O)[O-])n1)NCc1cccnc1	10.8%
CCC(=O)N1CCc2cc(S(=O)(=O)CCC(=O)NCCC3=CCCCC3)ccc21	8.45%
CCC1=C2CC[C@H]3C(=O)N(c4ccccc4)C(=O)[C@H]3[C@H]2[C@@]2(C)C(=NCC3CC3)OC(=O)N2C1=O	9.99%
O=C(CNC(=O)c1ccccc1F)NCCOc1cccc(Cl)c1Cl	2.75%
COc1cc(/C=N/NC(N)=S)ccc1OCC(=O)N1CCOCC1	4.29%
COc1ccccc1/C=C/CN1CCNC(=O)C1CC(=O)NCCc1cnccn1 (stereo not drawn)	18%
CCOC(=O)c1cnc2nc(NCc3ccc(OCc4ccccc4)cc3)[nH]n2c1=O	7.79%
CNC(=S)N/N=C(\C)c1cccc(C(F)(F)F)c1	3.31%
O=C1NC(=O)C2(Cc3ccccc3N3CCCC32)C(=O)N1c1ccc(Cl)cc1 (stereo not drawn)	-15.8%
O=C(Nc1ccc(Cl)cc1)c1ccco1	12.2%
O=C(COC(=O)CCc1ccc(S(=O)(=O)N2CCOCC2)cc1)Nc1ncc(C(F)(F)F)cc1Cl	1.27%
Cc1[nH]c2ccccc2c1/C=N/NC(=O)CCC(=O)Nc1ccccc1	13.6%
C=CCC1(CC=C)CCCN1C(=O)c1cc(COc2cncc(Cl)c2)on1	4.15%
